Experimental data from article PMC7041945 (2020).

Target: T1, MPZ-ecto peptide (Homo sapiens, UniProt P25189)
T1 chain: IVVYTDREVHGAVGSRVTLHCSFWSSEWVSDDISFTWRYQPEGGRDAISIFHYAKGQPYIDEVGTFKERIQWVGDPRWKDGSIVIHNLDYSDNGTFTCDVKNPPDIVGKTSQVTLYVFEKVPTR
Experiment: fluorescence quenching

B1: DR5 ECD (protein)
chain: not shown
Kd: 109 µM
